The campaign covered roughly 390,000 compounds. About 910 (0.23%) were called active. Roughly 5% stayed inconclusive and do not appear here. Calls come from the whole dose curve; as a rule, active = well fitted inhibition curve with a large enough effect; inconclusive = small, poorly fitted or top-dose-only effect; inactive = no such curve, though single readings can be large or run the other way. The entries are a selection whose mix differs from that of the whole data set.
% is set by controls: 0 for no effect and ±100 for the full control effect; potency is the fitted concentration of half-maximal effect.

Chain of UniProt O94782 (O94782 whole entry, looked up): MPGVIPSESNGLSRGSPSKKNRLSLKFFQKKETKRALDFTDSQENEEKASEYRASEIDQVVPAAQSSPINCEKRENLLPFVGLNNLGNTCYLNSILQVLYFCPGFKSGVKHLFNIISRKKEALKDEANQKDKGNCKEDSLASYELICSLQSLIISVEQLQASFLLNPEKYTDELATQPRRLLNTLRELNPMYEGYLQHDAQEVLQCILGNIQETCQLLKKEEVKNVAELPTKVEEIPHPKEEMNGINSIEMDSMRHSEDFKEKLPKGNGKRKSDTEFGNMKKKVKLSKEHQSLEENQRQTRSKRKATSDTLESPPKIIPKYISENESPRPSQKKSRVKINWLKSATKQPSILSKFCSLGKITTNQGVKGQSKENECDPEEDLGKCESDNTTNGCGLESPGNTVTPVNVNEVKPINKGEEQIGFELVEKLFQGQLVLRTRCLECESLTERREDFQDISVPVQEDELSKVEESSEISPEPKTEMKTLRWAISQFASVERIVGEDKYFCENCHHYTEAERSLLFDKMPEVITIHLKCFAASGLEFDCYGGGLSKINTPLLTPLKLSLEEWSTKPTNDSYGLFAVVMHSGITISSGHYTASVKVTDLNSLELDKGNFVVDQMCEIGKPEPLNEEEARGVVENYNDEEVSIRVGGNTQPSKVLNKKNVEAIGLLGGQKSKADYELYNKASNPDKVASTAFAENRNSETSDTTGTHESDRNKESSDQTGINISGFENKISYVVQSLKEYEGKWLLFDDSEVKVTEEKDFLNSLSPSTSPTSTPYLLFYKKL

In the experiment the target is Ubiquitin carboxyl-terminal hydrolase 1 (Homo sapiens) (UniProt O94782). The experiment in a line: Inhibitors of USP1/UAF1: Primary Screen. Note: nearly all actives have a fitted effect of over 60% in size. Conditions: recombinant USP1/UAF1, Ub-Rhodamine cleavage fluorescence; activity change, negative = inhibition: at 57.1 µM (top of the series). The procedure, abridged:
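Step one: compound is pinned into 1nM USP1/UAF1 in HEPES pH 7.8 buffer with TCEP. Step two: 15 min room-temperature incubation. Step three: Ub-Rho (150nM final) starts cleavage, tracked by fluorescence over six one-minute reads.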
On to `NC(=O)N1c2ccccc2C=Cc2ccccc21`, for which the “activity change, negative = inhibition” value is inactive: -7.6%. Same read-out and setting: to `COC(=O)c1cc(NC(=O)c2ccccc2)c(=O)oc1/C=C/Nc1ccc(Oc2ccccc2)cc1` belongs inactive: 306%. Take `CN(C)c1ccc(C=C2SC(=S)N(Cc3ccco3)C2=O)cc1`: the “activity change, negative = inhibition” value is inactive: 207%.

For the compound `C=CC[C@@H](CC(=O)N(CCO)Cc1ccccc1)C(=O)N[C@@H](COC(=O)[C@@H](CC=C)CC(=O)OC(C)(C)C)Cc1c[nH]c2ccccc12`, the “activity change, negative = inhibition” value was inactive: -18.3%.

Turning to `CC(Cc1ccccc1)Nc1ncnc2c1ncn2C1OC(CO)C(O)C1O` (stereo not drawn), the “activity change, negative = inhibition” value is inactive: -21.2%.

For `Cc1cccc(NC(=O)c2ccc(NCCc3ccccc3)c([N+](=O)[O-])c2)c1`, the “activity change, negative = inhibition” value is inactive: 43.9%. Still for that read-out and setting: to `O=C(NCC1CCCO1)/C(=C/c1ccccc1F)NC(=O)c1ccccc1` (stereo not drawn) belongs inactive: 2.07%; to `CCc1nc2ccc(C(=O)NCCc3ccccc3OC)cc2nc1CC`, inactive: -9.96%. Regarding `O=C(O)c1ccccc1-c1ccc(/C=C/c2cc(C(F)(F)F)[nH]c(=O)n2)o1`, the Potency was active: 28.2 µM.

Turning to `Cc1ccc([C@H]2C[C@@H](n3cc(COC(=O)c4ccccc4)nn3)[C@H](O)CN2C(=O)c2cccs2)cc1`, the “activity change, negative = inhibition” value was inactive: -10.6%. On to `CCOC(=O)N1CCN(c2nc3ccccc3nc2C(C#N)C(=O)NCCc2ccccc2)CC1` (stereo not drawn), for which the “activity change, negative = inhibition” value was inactive: -15.9%. For the compound `Cc1cccc(S(=O)(=O)N(C)C[C@@H]2OCc3cnnn3CCCC(=O)N([C@H](C)CO)C[C@H]2C)c1`, the “activity change, negative = inhibition” value is inactive: -11.7%.

Regarding `C[C@@H]1CN([C@@H](C)CO)C(=O)CCCn2nncc2CO[C@H]1CN(C)Cc1ccc(Oc2ccccc2)cc1`, the “activity change, negative = inhibition” value is inactive: -24.9%.

`COc1ccc(NC(=O)c2ccc(NC(=O)CCS(=O)(=O)c3cccs3)cc2)cc1`: the “activity change, negative = inhibition” value is inactive: -18.4%.

Consider `COc1ccc(NC(=O)CSc2ccc3c4c(cccc24)C(=O)c2ccccc2-3)cc1`, for which the Potency was active: 25.1 µM. On the same count and under the same terms, to `CCOC(=O)c1c(C)sc(-c2c(-c3cccc(Cl)c3)[nH]c3c2c(=O)n(C)c(=O)n3C)c1O` belongs active: 15.8 µM. Consider `C[C@H]1CN([C@@H](C)CO)C(=O)CCCn2nncc2CO[C@H]1CN(C)S(=O)(=O)c1ccc(Cl)cc1`, for which the “activity change, negative = inhibition” value is inactive: -19.9%. On the same count and under the same terms, next, `C=CC[C@@H](CC(=O)NCCO)C(=O)N[C@@H](COC(=O)[C@@H](CC=C)CC(=O)OC(C)(C)C)Cc1c[nH]c2ccccc12`: inactive: -30.7%. Turning to `COc1cc2c(C#N)c(N3CCCC3)nc(N)c2c(N)n1`, the Potency is active: 7.94 µM.

As for `CCOC(=O)N1C(=O)[C@](CC)(c2ccccc2)N1C(=O)OCC`, the “activity change, negative = inhibition” value was inactive: -23.7%. Consider `Cc1ccc(C(=O)Nc2cccc(C(F)(F)F)c2)cc1NC(=O)c1ccno1`, for which the “activity change, negative = inhibition” value is inactive: -26.7%. For `COc1ccc(C2C(C(=O)c3cccs3)=C(O)C(=O)N2c2nncs2)cc1` (stereo not drawn), the Potency is active: 2 µM.

In the case of `O=c1[nH]c(C2CCCN(S(=O)(=O)c3ccccc3)C2)nc2c1nnn2Cc1ccccc1Br` (stereo not drawn), the “activity change, negative = inhibition” value is inactive: -1.59%.

(Values after PubChem BioAssay AID743255 (National Center for Advancing Translational Sciences (NCATS), 2014).)
